The supplement of paper PMC9513381
Recombinant human monoclonal antibodies (heavy:light variable regions). ELISA EC50 on the named antigen, from 10 µg/ml down; IC50 / IC90 against spike pseudovirus on 293T-ACE2 cells, 48 h; lower = stronger. Calls: IC50 above 1,000 ng/ml = non-neutralizing; EC50 above 1,000 ng/ml = non-binder. The source prints 1000 for neutralization that was not reached; it is given as >1000 ng/ml. Only binders of the Wuhan-Hu-1 domain have neutralization values.

B1: B2084 (protein)
chain 1: EVQLVESGGALVQPGGSLRLSCVTSGFTLSDYWMNWVRQAPGKGLEWVALIKKDGSETKYVDSLRGRFTISRDNAKNSLYLQMDSLRVDDTAVYYCVAGAGWLPDYWGQGTLVTVSS
chain 2: QSVLTQPPSVSAAPGQKVTISCSGSSSNIGNNYVSWYQQLPGTAPKLLIYENNKRASGIPDRFSGSKSGTSATLGITRLQSGDEADYYCGTWDSNLSASWVFGGGTKLTVL
B2: B2089 (protein)
chain 1: QVQLVESGGGVVQPGRSLRLSCEASGFSFSTHGMHWVRQAPGKGLEWVALIYFDGKKTKYSDSVKGRFTVSRDNSRNTLFLQMTRLRTEDTAVYYCAREGEVTLIVGNYFDYWGQGTLVTVSS
chain 2: DIQMTQSPSSLSASVGDRVTITCRASQYISNYLNWYQQKPGKAPKLLIYAASSLQSGVPSRFSGSGSGTDFTLTISSLQPEDFATYYCQQSYTNPLYTFGQGTKLEIK
B3: B2092 (protein)
chain 1: EVQLVESGGGLVQPGGSLRLSCAASGFTFSSFNMNWVRQAPGKGLEWVSYISTSGSTIYYADSVEGRFSISRDNAKNSLYLQMNSLRDEDTAVYYCARGVGPRSYYYYGMDVWGQGTTVTVSS
chain 2: DIQMTQSPSSLSASVGDRVTITCRASQSISSFLNWYQQKPGKAPNLLIYAASSLASGVPSRFSGSGSGTDFTLTISSLQPEDFATYYCQQSYSTLPITFGQGTRLEIK
B4: B2094 (protein)
chain 1: QVQLQESGPGLVKASETLSLTCTVSGDSISRYYWSWIRQPPGKGLEWIGYIYDSRSTNYNPSLKSRVTISIDTSKNHFSLKLSSVTAADTAVYYCARHEVLTAILPYFDLWGRGTLVTVSS
chain 2: DIQMTQSPSSLSASVGDRVTITCRASQSINRYLNWYQQKPGKAPKLLIYAASTLQSEVPSRFSGSGSGTDFTLTISSLQPEDFATYYCQQSYSPRGITFGPGTKVDVK
B5: B004 (protein)
chain 1: QVQLVESGGGVVQPGRSLRLSCAASGFPFSSYAIHWVRQSPGKGLEWVAVISSDGNFKYSADSVKGRFTISRDNSKSTLYLQMNSLRAEDTAVYYCAREADDDMGIVPIFDYWGQGTLVTVSS
chain 2: QSALTQPASVSGSPGQSISISCTGTSSDVGSYNLVSWYQHHPGKAPKSIIYEDTKRPSGVSNRFSGSKSGNTASLTISGLQAEDEGDYYCCSYAGSHTWVFGGGTKVTVL
B6: B005 (protein)
chain 1: QVQLVESGGGVVQPGRSLRLSCAASGFTFSHYGMHWVRQAPGKGLEWVAVILYDGSDKYYADSVKGRFTISRDNSKNMLYLQMNSLRAEDRAIYYCAKDLGSYAYLFNYFDYWGQGTLVTVSS
chain 2: EIVLTQSPGTLSLSPGERATLSCRASQSVGGGYLAWYQQKPGQAPRLLIYGASSRATGVPDRFSGSGSGTDFTLTISRLEPEDFAVYYCQQYSSSRTFGQGTKVEIK
B7: B012 (protein)
chain 1: QVQLVESGGGVVQPGRSLRLSCAASGFTFSTYGMHWVRQAPGKGLEWVALISYDGSDKYYADSVKGRFTISRDNSKDTLFLRLNSLRAEDTAVYYCAKQISPYYASGRSYFDYWGQGVLVTVSS
chain 2: EIVLTQSPATLSLSPGERATLSCGASQSVSSGYLAWYQHKPGLAPRLLMYDASTRATGIPDRFSGSGSGTDFTLTISRLEPEDFAVYFCQQYGSSPITFGQGTRLEIK
B8: B018 (protein)
chain 1: EVQLVESGGGLVQPGGSLRLSCAASGFTFSNYWMTWVRQAPGKGLEWVASIKQDGSETFYVDSVKGRFTISRDNAKNSLHLHMNSLRPEDTAVYYCARAETDYIAAGGSPEYFQHWGQGTLVTVSS
chain 2: DIQMTQSPSSLSASVGDRVIITCQASQDIGNFLNWFQQRPGRAPKLLIYDASNLDTGVPARFSGSGSGTDFTFTISSLQPEDIATYYCQHYDNVALTFGGGTKVDFK
B9: B024 (protein)
chain 1: EVQLVESGGGLVKPGGSLRLSCAASGVTFISYSMNWVRQAPGKGLEWVSSISSSSDYIAYADSVKGRFTISRDNAKNSVYLQMTSLRADDTAVYYCARRGDYGECYDYWGQGALVTVSS
chain 2: DIQMTQSPSSLSASVGDRVTITCQASQDINIYLNWYQQKLGKAPKLLINDASNLQPGVPSRFSGSGSGTDFTFTISSLQPEDIATYYCLQYDNLPRTFGQGTKLEIK
B10: B029 (protein)
chain 1: EVQLVESGGGLIQPGGSLRLSCAASGFTVSANYMTWVRQAPGKGLDWVSVIYPGGSTFYADSVKGRFAISRDKSNNTLYLQMNSLRAEDTAVYYCARGPYPPKDSGFWGQGTLVTVSS
chain 2: DIVMTQSPDSLAVSLGERATINCKSSQSVLYSSNNKNYLAWYQQKPGQPPKLLIYWASTRESGVPDRLSGSGSGTDFTLTISSLQAEDVAVYYCQQYYSAPPTFGQGTKVEIK
B11: B030 (protein)
chain 1: QVQLQQWGAGLLKPSETLSLTCAVSGGSFSGYYWSWIRQPPGKGLEWIGEIIYSGDTNYNPSLKSRITLSLDTAKNQFSLKLTSVTAADTAVYYCARGLSSGYDWGYWGQGTLVTVSS
chain 2: QSALTQPASVSGSPGQSITISCTGTSSDVGGYNYVSWYQQHPGKAPKLMISDVSKRPSGISNRFSGSKSGNTASLTISGLQAEDEADYYCSSYTSNNSYVFGTGTKVTVL
B12: B031 (protein)
chain 1: QVQLQQWGAGLLKPSETLSLTCAVSGGSFSGYYWSWIRQPPGKGLEWIGEIIYSGDTNYNPSLKSRITLSLDTAKNQFSLKLTSVTAADTAVYYCARGLSSGYDWGYWGQGTLVTVSS
chain 2: QSALTQPPSASGTPGQRVTISCSGSSSNIGSNFVYWYQQLPGTAPKLLIYSNNQRPSGVPDRFSGSKSGTSASLAISGLRSEDEADYFCAAWDDSLSGYAVFGGGTQLTVL
B13: B1107 (protein)
chain 1: QVQLVQSGAEVKKPGSSVKVSCKASGGTFSSYAISWVRQAPGQGLEWMGRIIPILGIANYAQKFQGRVTITADKSTTTAYMEMSSLRSEDTAVYYCARGGGYDFRSGYPTPHYYYYYMDVWGKGTTVT
chain 2: DIQMTQSPSSLSASIGDRVTITCQASQDITDYLNWYHHVPGTAPKLLIYDASHLQTGVSSRFSGSGSGTHFNLTISSLQPEDIATYYCQHYDNLSLTFGGGTKVELK
B14: B1108 (protein)
chain 1: EVQLVESGGGLVQPGGSLRLSCSASGFTFNNYWMSWVRQAPGKGLEWIANIKQDGSEKYYVDSVKGRFTISRDNAKNSLYLLMNSLRADDTAVYYCARLERWLWGYFDYWGQGSLVTVSS
chain 2: DIVMTQSPDSLAVSLGERATINCKSSQSVLYSSNNKNYLAWYQQKPGQPPKLLIYWASTRESGVPDRFSGSGSGTDFTLTINSLQAEDVAVYYCQQYYSGPPITFGQGTRLEIK
B15: B1114 (protein)
chain 1: QVQLVQSGAEVKKPGSSVKVSCKASGDSFTAYAMSWVRQAPGRGLEWLGGIVPVFLTTQSSQKFQGRLTITADMSTSTVYMELNSLRSDDTAVYFCARGPVGSPRNYYSYPLAVWGQGTPVTVSS
chain 2: QSALTQPASVSGSPGQSITISCTGTSSDIGAYNFVSWYQQHPGKAPKLVICDVHNRPSGVSNRFSGSKSGTTASLTISGLQAEDEAYYYCSSYRDISSWVFGGGTKLTVL
B16: B1115 (protein)
chain 1: EVQLVESGGGLVQPGGSLRLSCAASGFIVSDSYMTWVRQAPGKGLEWVSLIHSGGSTYYADSVKGRFTITRHYSTNNLYLQMNSLRVEDTAVYYCARDTAASSGYYYNALDVWGQGTTVTV
chain 2: DIQMTQSPSSLSASVGDRVTITCRASQSISNYLNWYQQKPGKAPKLLIFAASSLQSGVPSRFSGSGSGTDFTLTISSLQPEDFATYFCQQSYSTPPTFGQGTKVEIK

What follows are binders tested against SARS-CoV-2 Delta (B.1.617.2) spike RBD (assay: ELISA binding EC50; higher = weaker binding; ELISA of recombinant human antibody on coated antigen, from 10 µg/ml in fourfold dilutions; four-parameter fit.).

Binder	ELISA binding EC50 [µg/mL]
B1	> 1
B2	> 1
B3	> 1
B4	> 1
B5	> 1
B6	> 1
B7	> 1
B8	> 1
B9	> 1
B10	> 1
B11	> 1
B12	> 1
B13	> 1
B14	> 1
B15	> 1
B16	> 1

What follows are binders tested against SARS-CoV-2 Omicron BA.1 spike protein in the same assay as above.

Binder	ELISA binding EC50 [µg/mL]
B1	> 1
B2	> 1
B3	> 1
B4	> 1
B5	> 1
B6	0.0125
B7	> 1
B8	> 1
B9	> 1
B10	> 1
B11	> 1
B12	> 1
B13	> 1
B14	> 1
B15	> 1
B16	> 1

What follows are binders tested against SARS-CoV-2 Wuhan-Hu-1 spike receptor-binding domain in the same assay as above.

Binder	ELISA binding EC50 [µg/mL]
B1	> 1
B2	> 1
B3	> 1
B4	> 1
B5	> 1
B6	> 1
B7	> 1
B8	> 1
B9	> 1
B10	> 1
B11	> 1
B12	> 1
B13	> 1
B14	> 1
B15	> 1
B16	> 1
